Laboratory results reported in the RNAGym collection of RNA variant scans (doi:10.7554/elife.90254).
Read counts are not given, so values of variants with three or more changes are uncertain.

B1: OR4K15 (parent)
chain: GUUAACGGUCAUAGGCCAUGGAAACUAGGAGCACCAUUUCGCUGCCAGUGAAGAAAUGAACAAAGAAAAUCUGGGCCAGGCAGGCAUCAAAAGAAAUAGUCUUGCGCUCAACCAGAAAGUCUGUAAUCAUUUUAAGGGUA

Variants of: B1
Test: self-cleavage, relative activity (ratio to wild type); higher = more cleavage; in vitro, sequencing; the parent is a self-cleaving ribozyme

| Variant | self-cleavage |
| --- | --- |
| U9C U37C U39G U49C A92U A94G A118G | 0.43 |
| A5G U49C A69G A78G | 0.05 |
| A54G A55G A67U A69G | 0.96 |
| U39C U43C U139C | 0.98 |
| U26C A69G A92G | 1.09 |
| C76U U87A A91G U120G | 0.04 |
| A33G A63G A118G A126G | 0.22 |
| A11G A23G A55G | 1.29 |
| A18U A51U C88A | 1.61 |
| U19C A52G A60U | 1.32 |
| U37C A52U U127C U139C | 0.67 |
| U38C A55G U132C | 1.95 |
| U9C U38C U49C A59G A116G | 0.18 |
| A64G A92U A126C | 2 |
| U43G U57C A98U | 1.4 |
| C35U A47G U131C | 0.58 |
| U43C A51G A56G A64G A86U G99C U139C | 0.05 |
| A47G G79U A98U | 0.05 |
| U2A A11G A33C | 1.21 |
| U26C G65A A68G | 1.19 |
| U108A A110C A118G | 0 |
| U38C A63G A96G A116U | 0.54 |
| U26C A82G A111G | 0.04 |
| G20U U37C A91G | 1.48 |

| Variant | self-cleavage |
| --- | --- |
| A23G A90G A91G A92G A129G | 0.48 |
| U37C A95G A118G | 1.42 |
| A82G A86G A92G C121G | 0.25 |
| U19C G41U A114G A129C | 0.07 |
| C25A A60G U108C A118G | 0 |
| A5G A82G U124C | 0.3 |
| A86G A89G A94G U130C | 0.69 |
| A59G U122C A140U | 1.5 |
| A36U A89U U130C | 1.08 |
| A22G A23G A60G A111G | 0.44 |
| A54G A56G A82C A89U | 0.23 |
| A30G C40U U72C C121U U122C A125G | 0.2 |
| A33C C113A A118G | 0.01 |
| U12C A52G A62G G83U | 0.54 |
| U37C A60G G104A A110G A111C | 0.02 |
| U39C A62G G75A U100A | 0.09 |
| U9C A59G A64G G106U | 0.06 |
| A24G U38C A69G | 1.99 |
| U39C A67G U120A U124C U132C | 1.04 |
| U43C A64G U100C C113U | 0.16 |
| U43C A66G U130C | 1.07 |
| U2A A27G A67G C81U U133C | 1.06 |
| A4G A92G G104A | 0.02 |
| A30U C34U A54G A92G A110G A125G U130C U131C | 0.18 |

| Variant | self-cleavage |
| --- | --- |
| G8A A64G A129G U132C | 1.24 |
| A52U A56G U100C | 2.2 |
| A47C A60G A114U U124C | 0.03 |
| A18G A54G A94G U127A | 1.97 |
| A60U A111G A126G | 0.01 |
| A22U A23G A24G A69G | 1.18 |
| U9C A23G U43C A89U A92G | 1.14 |
| A52G U57C A118G U131C G138A | 0.62 |
| A24G C46U A47G | 0.63 |
| A23U U102C A134G | 1.51 |
| U2C A66U G80U | 0.09 |
| A56G U57C A63G | 0.46 |
| U70C A91G G106A | 0.01 |
| C10U G53A A114G | 0.54 |
| A23G U43A A47C A110U | 0.6 |
| U38C U43C A64U C77U A114U | 0.13 |
| A66G A78G A135C | 0.06 |
| C40U A67G G74C | 0.18 |
| A30G U70C A129G | 0.54 |
| A47G A55G A78U | 0.25 |
| A5G A111G U131C | 0.1 |
| A56G A59G A140U | 1.09 |
| U39C U57C A126G A140U | 0.24 |
| G20A A68G A94U U124A U130C | 0.73 |

| Variant | self-cleavage |
| --- | --- |
| U37C A52G A117G U124A | 1.78 |
| A22G U127C A135C | 0.62 |
| U19G A52G A60U A69G A118G U127C | 0.42 |
| U19C A78G A95G | 0.16 |
| A5G U38C A60G | 0.7 |
| A30G U130C U132C | 1.68 |
| U97A A126G U127C | 1.41 |
| U9C U19C A24G A64G G84U | 0.8 |
| A11U U49A U132C | 1.18 |
| A22G U38C U120C | 0.57 |
| U2C G14C A117G | 1.58 |
| C40A A59G A89U | 1.72 |
| U38C U57C A110U A129C | 0.7 |
| A11G A36U A140G | 1.29 |
| A66G U72C A90G | 0.24 |
| A98C A126G A135G | 1.91 |
| U39C U57C A110G A111G | 0.03 |
| U9A A78U A111U | 0.03 |
| A22G A47G U127A | 1.78 |
| A89G A94G U100C A116G | 1.15 |
| U49C U103C U133C | 0.79 |
| A64G A98G U103C A118G | 0.03 |
| A23G U49A A59U A64G A78U U131C U133C | 0.19 |
| A5G A22U U43C A64G U72A A90G | 0.24 |

| Variant | self-cleavage |
| --- | --- |
| U72A A98G A118G | 0.02 |
| U38C A52U U127C U131C | 0.51 |
| A36G A52G A62G G106U | 0.04 |
| U43C A47G A56G G79A A98G | 0.02 |
| A23G A78G A92G A94G | 0.24 |
| U19C A111G U131C U132C | 0.01 |
| A30G A69G A118G | 1.55 |
| U9C A54U U57C A91G U103C | 0.5 |
| U37C A51G A60G | 0.28 |
| A56G A116U A117U U122C | 0.05 |
| G1U U37C A69G U100C C112A G138A | 0.01 |
| U19C C109U A116G U120C | 0.07 |
| A24G A33G U102C | 1.11 |
| A27U U57C U103C | 0.94 |
| U39C A54G A60U A117G U127C | 1.24 |
| A22G A23G U39C G75A | 0.16 |
| U2G A4U A52G A56G | 0.71 |
| A5G A33U A62G A89U G106A | 0.15 |
| U2A A11G A125G | 0.38 |
| G8A A59G A117G | 1.75 |
| U19A A30G U49C A110U | 0.92 |
| A51G U108C U122C A126U A129U | 0.01 |
| U39A U49C A135G | 0.46 |
| A59U A117U A126G | 0.77 |

| Variant | self-cleavage |
| --- | --- |
| A59G U70C U102C | 0.86 |
| A11G U19C C42U A60U C61U | 2.08 |
| G41A C85U A111G A116U U122C | 0.01 |
| U19A U39A A69G | 1.7 |
| U72C A94G G106A | 0.01 |
| A22G A27U A64G A118G | 1.16 |
| A24G A68G A69G U100C | 1.37 |
| A5U A36G A64G | 1.05 |
| U39C U122C U127A | 1.45 |
| A23G A55U U72C A78U U103C U108C | 0.02 |
| U43C U72A U120G | 0.35 |
| A116U A117G U124C U130C | 0.02 |
| G20A C42U A51U A59G A60U U70C | 0.8 |
| U39C A68U A118G | 1.21 |
| U43A A60G A82U A117G | 0.23 |
| A24G A30G U39A A54G U57C U70C A126U | 0.44 |
| U19C U108C A116U | 0.01 |
| A33U U87C A117G | 1.73 |
| A24G A30U U127C | 0.27 |
| U37C A55G G123A A129G | 0.34 |
| C25U A66U A86U | 0.82 |
| A55G A66G A116G | 0.2 |
| U9A A111U U120C U124A | 0.03 |
| A23G A47G A82G G104A U122A A134G | 0.01 |

| Variant | self-cleavage |
| --- | --- |
| U19G U38G A52G | 0.65 |
| U9C A24U A54G U102C | 1.96 |
| A82U A95G A140G | 0.33 |
| C17U U39C U72C | 0.51 |
| U9C U37C U38C A111G | 0.1 |
| U2C A55G U120C | 2.05 |
| U49C A69G A86U U130C | 0.52 |
| U26C A51U A116G | 0.99 |
| A54G A91G A110C | 0.28 |
| A22G U43C A60G | 0.55 |
| G21C A96G U124C | 0.56 |
| C61U A63C U97C | 1.85 |
| A54U A62G A63G A116G | 0.82 |
| U2A A5G A91G U100C | 2.37 |
| A66G U103C A114G U122A | 0.09 |
| G1A G28A A54G A62U A111G | 0.05 |
| U49C A59G A68G A82C A110C | 0.01 |
| U57A A66U G79A | 0.26 |
| A23G A69U C77U U131C | 1.6 |
| U39C A60G A91G U102A U108C A111U | 0.01 |
| U19C A69G A78U A117G | 0.14 |
| U37C A52G G93U | 2.07 |
| A18G U37A A94C U132C | 1.46 |
